In the supplement of paper PMC4967469:
pIC50: −log10 of the molar value. IC50 is the fitted dose that halves viability relative to control wells, and lower means more sensitive; a fit beyond the top or the lowest dose is shown as a bound at that dose. AUC, from the same fit, is the share of area under the viability curve across the 256-fold dose range; it is 1 without any effect and falls as sensitivity rises. Where the top dose is marked as inferred, it comes from the curve model; the source does not state it.

Key:
Test in all cases: Viability of human cancer cell lines after 72 h of drug (GDSC screen)
QL-XII-47 = compound: C=CC(=O)N1CCc2ccc(-n3c(=O)ccc4cnc5ccc(-c6cnn(C)c6)cc5c43)cc21 [QL-XII-47]; conditions: top dose 10.24 µM; top dose inferred
Experimental: (§1)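 Human cancer cell lines in 384-well plates, medium with 10% serum, drug for 72 h over a 256-fold dose range (nine 2-fold or five 4-fold steps up to the top dose). Adherent lines were fixed and stained with the nucleic acid dye Syto60, suspension lines read with resazurin; signal relative to control wells, capped at 0 and 100%. One two-parameter sigmoid per drug and line, fitted in a mixed model over all curves with the slope shared within a line.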

KIN001-266 = compound: CCN1CCC(n2cc(CNc3cc(Cl)c4ncc(C#N)c(Nc5ccc(F)c(Cl)c5)c4c3)nn2)CC1 [KIN001-266]; conditions: top dose 20 µM; top dose inferred
Experimental: as §1

BAY 61-3606 = compound: COc1ccc(-c2cc3nccn3c(Nc3ncccc3C(N)=O)n2)cc1OC [BAY 61-3606]; conditions: top dose 8 µM; top dose inferred
Experimental: as §1

CCT007093 = compound: O=C1/C(=C/c2cccs2)CC/C1=C\c1cccs1 [CCT007093]; conditions: top dose 6.6 µM; top dose inferred
Experimental: as §1

Row | Cell Line | AUC (QL-XII-47) | pIC50 (QL-XII-47) | AUC (KIN001-266) | pIC50 (KIN001-266) | AUC (BAY 61-3606) | pIC50 (BAY 61-3606) | AUC (CCT007093) | pIC50 (CCT007093)
1 | 8-MG-BA (glioma, adherent) | 0.438 | 6.36 | 0.976 | < 4.70 | 0.901 | < 5.10 | 0.94 | < 5.18
2 | 22RV1 (prostate, adherent) | 0.411 | 6.46 | 0.868 | < 4.70 | 0.895 | < 5.10 | 0.946 | < 5.18
3 | 42-MG-BA (glioma, adherent) | 0.898 | < 4.99 | 0.861 | 4.73 | 0.816 | 5.32 | 0.955 | < 5.18
4 | 201T (lung adenocarcinoma, adherent) | 0.776 | 5.28 | 0.868 | < 4.70 | 0.785 | 5.36 | 0.974 | < 5.18
5 | 451Lu (melanoma, adherent) | 0.888 | < 4.99 | 0.877 | 4.73 | 0.898 | < 5.10 | 0.946 | < 5.18
6 | 639-V (bladder, adherent) | 0.885 | 5.08 | 0.927 | < 4.70 | 0.713 | 5.75 | 0.985 | < 5.18
7 | 647-V (bladder, adherent) | 0.683 | 5.68 | 0.881 | < 4.70 | 0.817 | 5.34 | 0.973 | < 5.18
8 | 697 (lymphoblastic leukaemia, suspension) | 0.456 | 6.30 | 0.868 | 4.91 | 0.53 | 6.23 | 0.989 | < 5.18
9 | 769-P (kidney, adherent) | 0.294 | 6.80 | 0.87 | < 4.70 | 0.586 | 6.05 | 0.977 | < 5.18
10 | 786-0 (kidney, adherent) | 0.25 | 6.88 | 0.874 | 4.77 | 0.669 | 5.85 | 0.9 | < 5.18
11 | 5637 (bladder, adherent) | 0.624 | 5.87 | 0.851 | 4.88 | 0.896 | < 5.10 | 0.982 | < 5.18
12 | 8305C (thyroid, adherent) | 0.913 | < 4.99 | 0.94 | < 4.70 | 0.721 | 5.59 | 0.96 | < 5.18
13 | 8505C (thyroid, adherent) | 0.755 | 5.44 | 0.825 | 4.89 | 0.701 | 5.72 | 0.983 | < 5.18
14 | 23132-87 (stomach, adherent) | 0.933 | < 4.99 | 0.862 | 4.74 | 0.918 | < 5.10 | 0.982 | < 5.18
15 | A3-KAW (B-cell lymphoma, suspension) | 0.342 | 6.59 | 0.817 | 5.07 | 0.554 | 6.17 | 0.991 | < 5.18
16 | A4-Fuk (B-cell lymphoma, suspension) | 0.844 | 5.11 | 0.93 | < 4.70 | 0.712 | 5.69 | 0.962 | < 5.18
17 | A101D (melanoma, adherent) | 0.972 | < 4.99 | 0.851 | < 4.70 | 0.694 | 5.70 | 0.981 | < 5.18
18 | A172 (glioma, adherent) | 0.864 | 5.07 | 0.86 | 4.80 | 0.737 | 5.64 | 0.93 | < 5.18
19 | A204 (rhabdomyosarcoma, adherent) | 0.576 | 5.96 | 0.861 | < 4.70 | 0.813 | 5.22 | 0.976 | < 5.18
20 | A253 (head and neck, adherent) | 0.627 | 5.85 | 0.953 | < 4.70 | 0.972 | < 5.10 | 0.983 | < 5.18
21 | CHP-126 (neuroblastoma, suspension) |  |  | 0.869 | 4.71 | 0.844 | 5.23 | 0.987 | < 5.18
22 | DMS-273 (small cell lung carcinoma, adherent) |  |  | 0.788 | 5.03 | 0.741 | 5.59 | 0.978 | < 5.18
23 | Daudi (Burkitt lymphoma, suspension) |  |  | 0.885 | 4.77 | 0.539 | 6.20 | 0.981 | < 5.18
24 | EHEB (lymphoid neoplasm, suspension) |  |  |  |  | 0.751 | 5.42 | 0.968 | < 5.18
25 | G-361 (melanoma, adherent) |  |  | 0.863 | 4.79 | 0.741 | 5.63 | 0.97 | < 5.18
26 | H290 (mesothelioma, adherent) | 0.751 | 5.51 |  |  | 0.65 | 5.90 | 0.989 | < 5.18
27 | IM-9 (myeloma, suspension) |  |  |  |  | 0.883 | 5.19 | 0.992 | < 5.18

Row | Cell Line | AUC (QL-XII-47) | pIC50 (QL-XII-47) | AUC (KIN001-266) | pIC50 (KIN001-266) | AUC (BAY 61-3606) | pIC50 (BAY 61-3606) | AUC (CCT007093) | pIC50 (CCT007093)
28 | IST-SL2 (small cell lung carcinoma, suspension) | 0.552 | 6.05 |  |  | 0.691 | 5.77 | 0.986 | < 5.18
29 | JHU-029 (head and neck, adherent) |  |  |  |  | 0.778 | 5.39 | 0.972 | < 5.18
30 | KARPAS-231 (B-cell leukaemia, suspension) |  |  |  |  | 0.695 | 5.82 | 0.992 | < 5.18
31 | KOSC-2 (head and neck, adherent) |  |  | 0.967 | < 4.70 | 0.985 | < 5.10 | 0.947 | < 5.18
32 | KP-1N (pancreas, adherent) | 0.459 | 6.31 |  |  | 0.801 | 5.38 | 0.986 | < 5.18
33 | LB647-SCLC (small cell lung carcinoma, semi-adherent) | 0.348 | 6.64 |  |  | 0.912 | < 5.10 | 0.983 | < 5.18
34 | NB1 (neuroblastoma, semi-adherent) |  |  | 0.824 | 4.87 | 0.697 | 5.72 | 0.981 | < 5.18
35 | NCI-H1963 (small cell lung carcinoma, suspension) |  |  | 0.99 | < 4.70 | 0.89 | 5.15 | 0.991 | < 5.18
36 | NCI-H2342 (lung adenocarcinoma, adherent) | 0.872 | < 4.99 | 0.905 | < 4.70 | 0.691 | 5.74 |  | 
37 | NU-DUL-1 (B-cell lymphoma, suspension) | 0.568 | 6.03 | 0.706 | 5.38 | 0.721 | 5.74 |  | 
38 | PL-21 (acute myeloid leukaemia, suspension) | 0.616 | 5.85 | 0.832 | 4.80 | 0.612 | 5.97 |  | 
39 | RMG-I (ovary, adherent) | 0.583 | 5.95 | 0.772 | 5.04 | 0.917 | < 5.10 |  | 
40 | SCC90 (head and neck, adherent) | 0.785 | 5.19 |  |  | 0.951 | < 5.10 | 0.981 | < 5.18
41 | SCC-3 (B-cell lymphoma, suspension) | 0.489 | 6.22 | 0.905 | 4.87 | 0.931 | 5.18 |  | 
42 | SIG-M5 (acute myeloid leukaemia, suspension) | 0.294 | 6.70 | 0.714 | 5.38 | 0.614 | 6.02 |  | 
43 | SISO (cervix, adherent) | 0.549 | 6.06 | 0.935 | < 4.70 | 0.888 | < 5.10 |  | 
44 | SNU-475 (liver, adherent) | 0.918 | < 4.99 | 0.859 | 4.87 | 0.949 | < 5.10 |  | 
45 | SNU-C2B (large intestine, adherent) | 0.724 | 5.46 | 0.865 | < 4.70 | 0.682 | 5.72 |  | 
46 | STS-0421 (soft tissue, adherent) | 0.728 | 5.49 |  |  | 0.777 | 5.42 | 0.983 | < 5.18
47 | SU-DHL-1 (anaplastic large cell lymphoma, suspension) | 0.558 | 6.05 | 0.915 | 4.84 | 0.997 | < 5.10 |  | 
48 | SU-DHL-8 (B-cell lymphoma, suspension) | 0.27 | 6.82 | 0.81 | 5.01 | 0.758 | 5.58 |  | 
49 | SU-DHL-16 (B-cell lymphoma, suspension) |  |  | 0.903 | 4.87 | 0.62 | 6.01 | 0.981 | < 5.18
50 | SW756 (cervix, adherent) | 0.978 | < 4.99 | 0.984 | < 4.70 | 0.958 | < 5.10 |  | 
51 | TALL-1 (T-cell lymphoblastic leukaemia, suspension) | 0.838 | 5.19 | 0.877 | 4.74 | 0.975 | < 5.10 |  | 
52 | TE-441-T (rhabdomyosarcoma, adherent) | 0.701 | 5.64 | 0.876 | 4.73 | 0.818 | 5.37 |  | 
53 | UACC-812 (breast, adherent) | 0.813 | 5.28 | 0.942 | < 4.70 | 0.991 | < 5.10 |  | 
54 | VMRC-RCW (kidney, adherent) | 0.476 | 6.26 | 0.864 | 4.81 | 0.932 | < 5.10 |  | 
